Where a name gives a salt, the structure may show the parent alone. The list shows a part of the results. Repeats are few or missing, and single values can be far off.
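Further: monoclonal Beas-2B line stably carrying CMV promoter-driven AQP5-HiBiT, 5,000 cells per well in 384-well plates, lytic HiBiT plus LgBiT NanoLuc luminescence, FDA-approved drug library screen.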

This assay concerns Beas-2B AQP5-HiBiT reporter cells. The assay can be described thus: AQP5-HiBiT luminescence relative to vehicle (ratio to vehicle); higher = higher AQP5-HiBiT protein abundance. The following applies: 10 µM; 18 h.
With `O=c1n(CCCN2CCN(c3cccc(Cl)c3)CC2)nc2ccccn12` [Trazodone hydrochloride], the AQP5-HiBiT luminescence came to 1.38.

As for `O=C(O)c1cc(/N=N/c2ccc(S(=O)(=O)Nc3ccccn3)cc2)ccc1O` [Sulfasalazine], the AQP5-HiBiT luminescence came to 0.636.

For the molecule `O=C(O)C[C@H](O)C[C@H](O)/C=C/c1c(C2CC2)nc2ccccc2c1-c1ccc(F)cc1` [Pitavastatin calcium], the AQP5-HiBiT luminescence is 0.432.

As to `NS(=O)(=O)c1cc2c(cc1Cl)NCNS2(=O)=O` [Hydrochlorothiazide], the AQP5-HiBiT luminescence amounted to 1.13.

For the molecule `Cc1ccc(C)c(OCCCC(C)(C)C(=O)O)c1` [Gemfibrozil], the AQP5-HiBiT luminescence amounted to 0.591.

`Clc1ccc(COC(Cn2ccnc2)c2ccc(Cl)cc2Cl)c(Cl)c1` (stereo not drawn) [Miconazole nitrate]: the AQP5-HiBiT luminescence was determined as 1.29.

Regarding `CCOc1ccc2ccccc2c1C(=O)N[C@@H]1C(=O)N2[C@@H]1SC(C)(C)[C@@H]2C(=O)O` [nafcillin sodium], the AQP5-HiBiT luminescence is 0.97.

`CCCN(CCC)S(=O)(=O)c1ccc(C(=O)O)cc1` [Probenecid]: the AQP5-HiBiT luminescence is 0.721.

On to `S=c1[nH]cnc2nc[nH]c12` [6-Mercaptopurine monohydrate], for which the AQP5-HiBiT luminescence was found to be 1.32.

In the case of `NC12CC3CC(CC(C3)C1)C2` [Amantadine hydrochloride], the AQP5-HiBiT luminescence was found to be 0.783.

Consider `Cc1ccc(Nc2nccc(N(C)c3ccc4c(C)n(C)nc4c3)n2)cc1S(N)(=O)=O` [Pazopanib], for which the AQP5-HiBiT luminescence stood at 0.323.

`Nc1cccc2c1C(=O)N(C1CCC(=O)NC1=O)C2=O` (stereo not drawn) [Pomalidomide]: the AQP5-HiBiT luminescence came to 0.789.

As to `COc1c(N2CCNC(C)C2)c(F)cc2c(=O)c(C(=O)O)cn(C3CC3)c12` (stereo not drawn), the AQP5-HiBiT luminescence is 0.872.

Source of the values: the supplement of paper PMC8821664.
